# Test results: PubChem BioAssay AID2451 (National Center for Advancing Translational Sciences (NCATS), 2010)
# Where “and” joins values, the source holds several entries; their conditions need not be identical. Equal values may be shown once. Out of some 290,000 compounds screened, about 2,100 (0.72%) were called active. This list was built around the results that the source calls inconclusive (neither active nor inactive); the mix of calls is not that of the screen. Calls come from the whole dose curve; as a rule, active = well fitted inhibition curve with a large enough effect; inconclusive = small, poorly fitted or top-dose-only effect, or effect the other way; inactive = flat fitted curve, though single readings scatter. A potency beside an inconclusive call is a rough fit, not a confirmed value.
# Target: Fructose-bisphosphate aldolase (Giardia intestinalis (strain ATCC 50803 / WB clone C6)) (UniProt A8B2U2)
# Experiment: qHTS Assay for Inhibitors of Fructose-1,6-bisphosphate Aldolase from Giardia Lamblia; note: nearly all actives have a fitted effect of over 55% in size
# Conditions: purified Giardia FBPA; activity, negative = inhibition: at 59.6 µM (top of the series) unless noted
# Method in brief: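 40 nM FBPA preincubated 10 min at RT with compound (up to 57.5 uM final), then substrate plus GAPDH/TPI/NAD/arsenate coupling and diaphorase/resazurin added. Fluorescence read after 20 min at RT, 525/598 nm.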
# % is set by controls: 0 for no effect and ±100 for the full control effect; potency is the fitted concentration of half-maximal effect; tags give direction and shape of the fitted curve.
# Chain of UniProt A8B2U2 (A8B2U2 whole entry, looked up): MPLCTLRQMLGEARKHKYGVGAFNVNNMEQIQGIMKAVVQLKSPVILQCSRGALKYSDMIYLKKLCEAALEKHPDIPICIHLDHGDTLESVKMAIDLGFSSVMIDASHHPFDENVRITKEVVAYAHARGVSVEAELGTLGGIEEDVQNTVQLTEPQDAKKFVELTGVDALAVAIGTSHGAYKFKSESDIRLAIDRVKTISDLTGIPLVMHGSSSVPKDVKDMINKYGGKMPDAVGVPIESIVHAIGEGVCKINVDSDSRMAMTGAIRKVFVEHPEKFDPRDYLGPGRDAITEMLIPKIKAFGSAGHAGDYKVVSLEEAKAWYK
SMILES,"activity, negative = inhibition",Potency
CCOC(=O)N1CCN(C(=O)c2ccc3c(=O)n(-c4ccccc4F)c(=S)[nH]c3c2)CC1,inactive: -28.5%,
O=c1[nH]cc(I)cc1I,,active: 9.98 µM
CCCCC1=CC2=CC(=O)C(C)(OC(=O)CC)C(=O)C2=CN1C(CO)CO (configuration not stated),,"inconclusive: 281 nM [inhibitor, full curve] and inconclusive: 1.12 µM [inhibitor, single point]"
N=c1c2c(n(Cc3ccccc3)c3c1CCC3)CCC2,inactive: -0.0837%,
CC1(C)N(O)C(c2ccc(C(=O)O)cc2)=[N+]([O-])C1(C)C,,active: 39.7 µM
Cn1c(=O)n(C)c2cc(/C=N/NC(=O)c3ccc(Cl)cc3)ccc21,inactive: -5.32%,
Cc1cccc2c1c1ccc3c(c1n2C)C(=O)C=CC3=O,,"inconclusive: 7.06 µM [inhibitor, partial curve]"
CCOC(=O)N1CCC(NC(=O)c2sc3nc4n(c(=O)c3c2C)CCCC4)CC1,inactive: 0.548%,
O=c1cc(-c2ccccc2O)oc2ccc3ccccc3c12,inactive: 9.09%,
CCOc1ccc(CN(C)C(=O)CNC(=O)c2ccccc2)cc1,inactive: -1.6%,
O=C(c1ccc2c(c1)N(Cc1ccccc1)C(=O)c1ccccc1S2)N1CCCC1,,"inconclusive: 11.2 µM [inhibitor, partial curve]"
O=C(Nc1nnc(-c2ccncc2)o1)c1ccccc1,,active: 15.8 µM
CCCn1c(NC(=O)c2ccccc2)nc2ccccc21,,"inconclusive: 15.8 µM [activator, partial curve]"
O=C(NC(=S)Nc1ccccn1)c1ccc([N+](=O)[O-])cc1,,"inconclusive: 5.61 µM [inhibitor, full curve]"
Cc1ccc(CC(=O)Nc2ccc(S(=O)(=O)Nc3nccc(C)n3)cc2)cc1,,"inconclusive: 15.8 µM [inhibitor, partial curve]"
COc1ccc(NC(=O)N(C2CCCCC2)C2CCN(C(C)C)CC2)c(OC)c1,,"inconclusive: 0.706 µM [inhibitor, full curve]"
C/C(CC1CC(COCC(C)C)OC1=O)=N\NC(N)=S (configuration not stated),,"inconclusive: 19.9 µM [inhibitor, partial curve]"
CCN1CCc2c(sc(N)c2C#N)C1,,"inconclusive: 15.8 µM [inhibitor, partial curve]"
COc1cc(C)cc(C(=O)O)c1C1=C(O)c2cccc(O)c2C(=O)C1=O,,"inconclusive: 15.8 µM [inhibitor, single point]"
Clc1ccccc1OCCCCN1CCCC1,,"inconclusive: 17.7 µM [inhibitor, single point]"
S=C(c1ccc(Br)cc1)N1CCN(Cc2ccccc2)CC1,,active: 14.1 µM
Cc1ccc(C(C)C)c(OCC#CCN2CCOCC2)c1,,"inconclusive: 25.1 µM [inhibitor, partial curve]"
NC(=O)[C@@H]1[C@@H]2C(=O)N(c3ccc(F)cc3)C(=O)[C@@H]2[C@H]2C=Cc3ccccc3N21,,"inconclusive: 15.8 µM [inhibitor, partial curve]"
COc1cc(C(=O)Nc2ccc(NC(=O)c3ccco3)nc2)cc(OC)c1OC,inactive: -0.296%,

SMILES,"activity, negative = inhibition",Potency
COc1ccc(/C=C2/C(=N)N3N=C(CC(=O)N4CCCC4)SC3=NC2=O)cc1OC,,"inconclusive: 35.5 µM [inhibitor, single point]"
COc1cc(-c2nc3n(c(=O)c2C#N)CCS3)cc(OC)c1OC,inactive: -1.04%,
Cc1cccc(N2CC(C(=O)Nc3nnc(SCC(=O)N4CCOCC4)s3)CC2=O)c1 (configuration not stated),,"inconclusive: 20 µM [inhibitor, partial curve]"
CC1CC(C)CN(S(=O)(=O)c2ccc3c(c2)CC(C)N3C(=O)C2CCC2)C1 (configuration not stated),inactive: -0.961%,
CC(=O)N1CCN(CC(=O)Nc2ccc(C)c(F)c2)CC1,,"inconclusive: 14.1 µM [inhibitor, partial curve]"
Cc1cc(C)c(C(=O)Cn2nc(C(=O)O)c3ccccc3c2=O)cc1C,inactive: 3.39%,
Cc1cccc(OCCC(=O)NCC(=O)Nc2cccc(C)c2C)c1,,active: 15.8 µM
CC[C@H](C)[C@@H](CNC)NC[C@@H](Cc1ccc(O)cc1)NCC(C)(C)C,,"inconclusive: 10 µM [activator, partial curve]"
Cc1csc(NC(=O)Cc2ccc(Br)cc2)n1,inactive: 7.3%,
Cc1cc(Cl)ccc1N=c1ssnc1Cl,,active: 15.8 µM
COc1ccc([N+](=O)[O-])cc1NC(=S)NC(NC(=O)C(c1ccccc1)c1ccccc1)C(Cl)(Cl)Cl (configuration not stated),inactive: 2.2%,
Cc1nc(SCC(=O)NC2CCCC2)[nH]c(=O)c1C,,"inconclusive: 15.8 µM [inhibitor, single point]"
N#Cc1ccccc1S(=O)(=O)N1CCN(CC(O)COc2ccccc2F)CC1 (configuration not stated),,active: 15.8 µM
COc1ccc2cc3cc(C(=O)NCCN4CCc5ccccc5C4)sc3nc2c1,,active: 15.8 µM
Cc1ccc(/C=N/NC(=O)CSc2nc3ccccc3n2C)s1,,active: 3.97 µM
CCc1cc(C(C)=O)c(O)cc1OCCCCCC(C)(C)c1nn[nH]n1,,"inconclusive: 17.7 µM [activator, single point]"
CCOC(=O)c1sc(N)c(C(=O)Nc2ccccc2)c1C,,"inconclusive: 17.7 µM [inhibitor, single point]"
COc1ccc(-c2nnc(N3CCOCC3)c3ccccc23)cc1,inactive: -5.38%,
O=c1cc(-c2ccccc2)oc2cc(O[C@@H]3O[C@H](CO)[C@@H](O)[C@H](O)[C@H]3O)c(O)c(O)c12,,"inconclusive: 22.3 µM [inhibitor, partial curve]"
CCN(CC)c1ccc(NC2CC(=O)N(CCc3ccc(OC)cc3)C2=O)cc1 (configuration not stated),,"inconclusive: 17.7 µM [inhibitor, partial curve, poor fit]"
COc1cc(OC)cc(C(=O)NC(=S)NNC(=O)c2cnccn2)c1,,"inconclusive: 44.6 µM [activator, single point]"
O=C(NC(=S)Nc1ccc2nc[nH]c2c1)c1ccccc1,,"inconclusive: 25.1 µM [inhibitor, partial curve]"
Cc1ccccc1CN1CCN(Cc2ccccc2C(F)(F)F)CC1,,"inconclusive: 15.8 µM [inhibitor, single point]"
COc1cccc(C2=CC(c3cc(OC)ccc3OC)n3nnnc3N2)c1 (configuration not stated),inactive: -15.7%,

SMILES,"activity, negative = inhibition",Potency
CC(C)n1c(=O)[nH][nH]c1=S,,active: 17.7 µM
CC1(C)Cc2c(sc3ncn4c(=S)[nH]nc4c23)CO1,,"inconclusive: 5.61 µM [inhibitor, single point]"
CC(C)c1ccc(CN2CCC(C(=O)NCc3cccnc3)CC2)cc1,,"inconclusive: 22.3 µM [inhibitor, partial curve]"
Nc1nc(SCC(=O)NCC2CCCO2)[nH]c(=O)c1NC(=O)c1ccco1 (configuration not stated),,"inconclusive: 31.5 µM [inhibitor, single point]"
CS(=O)(=O)c1ccc2c(c1)sc1nc(=O)c(/C=C3/C=CC(=O)C(O)=C3)c(N)n12,,"inconclusive: 17.7 µM [inhibitor, single point]"
COC(=O)N/N=C/c1cn(Cc2ccc(F)cc2)c2ccccc12,inactive: -7.51%,
COc1ccc(OC)c(S(=O)(=O)Nc2ccc(O)c3ccccc23)c1,,"inconclusive: 3.55 µM [inhibitor, full curve]"
CC(=O)Nc1ccc(C#Cc2ccc(NC(C)=O)cc2)cc1,inactive: 2.05%,
O=C(O)CCCn1c(=S)[nH]c2c(sc3ccc([N+](=O)[O-])cc32)c1=O,,"inconclusive: 14.1 µM [inhibitor, partial curve]"
CCc1nnc(NC(=O)CN2CCN(C3CCCCC3)CC2)s1,,"inconclusive: 14.1 µM [inhibitor, partial curve]"
COc1cc(C(=O)OC2CCCCC2=O)cc(OC)c1C (configuration not stated),,"inconclusive: 17.7 µM [inhibitor, single point]"
COC(=O)CCCC1=CC2=C(c3ccccc3)C(=O)C(C)(OC(=O)C3CCCC3)C(=O)C2=CN1CCN1CCOCC1 (configuration not stated),,"inconclusive: 5 µM [inhibitor, full curve, poor fit] and inconclusive: 3.97 µM [inhibitor, single point]"
COc1c(/C=N/NC(N)=S)c(C)nn1-c1ccccc1,,"inconclusive: 17.7 µM [inhibitor, single point]"
Cn1ccc(C(=O)N/N=C/c2ccccc2[N+](=O)[O-])n1,inactive: -16.5%,
O=C(c1cc2c(=O)n3ccccc3nc2s1)N1CCc2ccccc2C1,,"inconclusive: 15.8 µM [inhibitor, single point]"
COc1cccc(-c2c(C(=O)N/N=C/c3ccc(C)o3)nnn2-c2nonc2N)c1,,"inconclusive: 20 µM [inhibitor, single point]"
CC(=O)C1=C(C)NC(SCC(N)=O)=C(C#N)C1C (configuration not stated),,"inconclusive: 17.7 µM [inhibitor, single point]"
CCN(CC)S(=O)(=O)c1ccc(N=Nc2c(C)[nH]n(C(N)=S)c2=O)cc1,,"inconclusive: 19.9 µM [activator, partial curve]"
COc1cc(OC)cc(-c2nnc(Nc3nc4c(F)cccc4s3)o2)c1,,"inconclusive: 6.29 µM [activator, partial curve]"
Cc1[nH]c(=S)[nH]c(=O)c1CCC1OCCO1,,active: 7.08 µM
COc1cccc(Nc2ncccc2C(=O)NCc2ccccc2)c1,,"inconclusive: 15.8 µM [inhibitor, single point]"
S=C(N/N=C/c1ccc2c(c1)OCO2)NC1CC2CCC1C2 (configuration not stated),inactive: -4.04%,
CSCCc1nc(SCC(=O)Nc2nnc(C)s2)[nH]c1C,,"inconclusive: 3.16 µM [inhibitor, full curve]"
FC(F)(F)c1cccc(Sc2cc(C(F)(F)F)nc(-c3ccccn3)n2)c1,inactive: -5.94%,
